Structures can show the parent of a compound that is named as a salt. The list shows a part of the results. Single values are uncertain, as repeats are few or missing.
Experiments:
[1] = tested on: H9 teratoma-derived LAM model cells, TSC2-/-; test: percent SyTOX+ dead cells; higher = more cytotoxic; conditions: 5 µM, treatment time 72 h, culture: 3D hyaluronic acid hydrogel
[2] = tested on: H9 teratoma-derived LAM model cells, WT; test: percent SyTOX+ dead cells; higher = more cytotoxic; conditions: 5 µM, treatment time 72 h, culture: 3D hyaluronic acid hydrogel, genotype: WT
[3] = tested on: H9 teratoma-derived LAM model cells, TSC2-/-; test: percent of cells invaded past median invasion distance of vehicle control; LAM is lymphangioleiomyomatosis; the cells come from teratomas of the human stem cell line H9; higher = more invasion; extreme values may be limits of the assay; conditions: 5 µM, treatment time 72 h, culture: 3D hyaluronic acid hydrogel
[4] = tested on: H9 teratoma-derived LAM model cells, WT; test: as above; conditions: 5 µM, treatment time 72 h, culture: 3D hyaluronic acid hydrogel, genotype: WT
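Throughout, for percent SyTOX+ dead cells: cells seeded atop a hyaluronic acid gel crosslinked via MMP-cleavable peptides, containing vitronectin peptides and methylcellulose, imaged live by high-content microscopy with automated analysis, one technical replicate per compound.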
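Throughout, for percent of cells invaded past median invasion distance of vehicle control: live cells imaged by high content microscopy and scored with in-house automated image analysis, one technical replicate per compound in each genotype and rapamycin condition.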

Compound | percent SyTOX+ dead cells ([1]; rapamycin 0 nM) | percent SyTOX+ dead cells ([1]; rapamycin 20 nM) | percent SyTOX+ dead cells ([2]; rapamycin 0 nM) | percent SyTOX+ dead cells ([2]; rapamycin 20 nM) | percent ([3]; rapamycin 0 nM) | percent ([3]; rapamycin 20 nM) | percent ([4]; rapamycin 0 nM) | percent ([4]; rapamycin 20 nM)
c1ccc2c(Oc3nc(Nc4ccc(N5CCOCC5)cc4)c4ncn(C5CCCCC5)c4n3)cccc2c1 [Purmorphamine] | 11.6% | 15.4% | 12.7% | 10.8% | 71.6% | 41.3% | 26.3% | 28.6%
CN(C)Cc1cccc(N=C(c2ccccc2)c2c(O)[nH]c3cc(C(=O)N(C)C)ccc23)c1 | 10% | 4.76% | 22.1% | 13.3% | 73.2% | 69% | 42.9% | 30.1%
CC(=O)SCC(=O)c1ccc(NS(=O)(=O)c2ccc(OCCCN(C)C)cc2)nc1 | 11.8% | 9.39% | 10.8% | 11.8% | 63% | 43.3% | 49.1% | 28.3%
COc1ccc(-c2nc(N3CCOCC3)c3sc(CN(C)c4ncc(C(=O)NO)cn4)cc3n2)cn1 | 14% | 14.5% | 14.7% | 13.4% | 60.7% | 33.4% | 43.9% | 34.6%
CO[C@@H]1[C@H](N(C)C(=O)c2ccccc2)C[C@H]2O[C@]1(C)n1c3ccccc3c3c4c(c5c6ccccc6n2c5c31)C(=O)NC4 | 10.8% | 15.8% | 15.1% | 22.6% | 0% | 0.75% | 0% | 0%
CN(C)CC(C)(C)CNc1nn2c(-c3ccccc3)nnc2cc1C1CCC1 | 6.52% | 8.13% | 15.1% | 6.19% | 29.4% | 20.7% | 17.9% | 27.9%
COc1cc(SC)ccc1C(=O)N1CCC(Cc2ccccc2)CC1 | 17.6% | 12.9% | 10.5% | 12.1% | 18.9% | 26.3% | 33.2% | 43.2%
COc1ccc(-c2ccc3c(N4CCOC[C@@H]4C)nc(N4CCOC[C@@H]4C)nc3n2)cc1CO | 6.48% | 0.39% | 14% | 15.4% | 44.4% | 88.8% | 53.9% | 74.7%
CCN(CCCOc1ccc2c(Nc3cc(CC(=O)Nc4cccc(F)c4)[nH]n3)ncnc2c1)CCOP(=O)(O)O [AZD-1152, Barasertib] | 26.4% | 14.3% | 24.1% | 16.8% | 23.1% | 42.1% | 33.8% | 38.8%
COc1ccc(OC)c2c(=S)c3ccccc3[nH]c12 | 11.2% | 15.1% | 8.1% | 9.05% | 66.8% | 66.3% | 61% | 35.8%
O=C(/C=C/C#Cc1ccc(NS(=O)(=O)c2ccccc2)cc1)NO [Oxamflatin; 107-0130] | 9.06% | 9.56% | 10.5% | 11.4% | 53.9% | 40.8% | 51.5% | 49.7%
CC(=O)Nc1ccc(NC(=S)NC(=O)c2ccc(C(C)(C)C)cc2)cc1 [Tenovin-1] | 44% | 48.9% | 40.4% | 41.9% | 1.37% | 6.07% | 3.11% | 4.11%
Cc1cc(C=C2C(=O)C=CC2=O)cc(C)c1O | 56.8% | 55.8% | 52.3% | 34.7% | 0.9% | 0% | 0% | 0%
COc1cc2c(Nc3ccc(NC(=O)c4ccccc4)cc3)ncnc2cc1OCCCN1CCOCC1 | 10.1% | 16.9% | 39.9% | 32.9% | 38.3% | 50% | 0.6% | 20.8%
C=C(C)[C@@H](CC=C(C)C)C[C@@]12C[C@@H](CC=C(C)C)C(C)(C)[C@@](CC=C(C)C)(C(=O)C(C(=O)c3ccc(O)c(O)c3)=C1O)C2=O [Garcinol (BML-GR343)] | 17.4% | 16% | 14.3% | 4.9% | 76.7% | 20.7% | 49.1% | 26.6%
CS(=O)(=O)c1cc(F)cc2c3c(n(Cc4ccc(Cl)cc4)c12)[C@@H](CC(=O)O)CC3 | 6.87% | 3.38% | 5.56% | 8.41% | 45.7% | 45.1% | 38.5% | 37.4%
CC(=O)c1ccc(N2CCOCC2)cc1O | 9.7% | 6.52% | 7.62% | 10.4% | 56.7% | 99.5% | 59.1% | 92.2%
O=C1OC(C=Cc2ccccc2)=NC1=Cc1cccnc1 | 3.3% | 3% | 9.17% | 8.45% | 39.3% | 55% | 50.9% | 19.1%
Cc1cc2c(F)c(Oc3ncnn4cc(OC[C@@H](C)O)c(C)c34)ccc2[nH]1 | 15.9% | 22.9% | 18.5% | 13.9% | 22% | 14.7% | 6.52% | 11.4%
C[C@@H](Oc1cc(-c2cnn(C3CCNCC3)c2)cnc1N)c1c(Cl)ccc(F)c1Cl | 10.3% | 12.5% | 23.1% | 16.2% | 51.3% | 29% | 41.5% | 44.4%

Compound | percent SyTOX+ dead cells ([1]; rapamycin 0 nM) | percent SyTOX+ dead cells ([1]; rapamycin 20 nM) | percent SyTOX+ dead cells ([2]; rapamycin 0 nM) | percent SyTOX+ dead cells ([2]; rapamycin 20 nM) | percent ([3]; rapamycin 0 nM) | percent ([3]; rapamycin 20 nM) | percent ([4]; rapamycin 0 nM) | percent ([4]; rapamycin 20 nM)
COc1cc(F)c(C(C)C)cc1-c1ccc(C(F)(F)F)cc1CN1C(=O)O[C@H](c2cc(C(F)(F)F)cc(C(F)(F)F)c2)[C@@H]1C [Anacetrapib, MK-0859] | 12.7% | 7.75% | 16.7% | 19.7% | 62.6% | 56.8% | 57.4% | 43.3%
NC(=O)c1cccc2[nH]c(-c3ccc(C4CCCN4)cc3F)nc12 (configuration not stated) | 12.8% | 9.45% | 16.6% | 19.6% | 43.6% | 43.7% | 37.8% | 33.9%
CCN(CC)CC1CCN(c2ncc3ncnc(Nc4ccc(F)c(Cl)c4)c3n2)CC1 [BIBU 1361 dihydrochloride] | 29.5% | 21.3% | 31.2% | 21.6% | 25.1% | 17.4% | 13.9% | 7.02%
CO[C@@H](C(=O)N1Cc2[nH]nc(NC(=O)c3ccc(N4CCN(C)CC4)cc3)c2C1)c1ccccc1 | 19.6% | 21.2% | 42.2% | 46.2% | 31.6% | 27.6% | 3.43% | 13.8%
O=c1cc(-c2cccc3c2Sc2ccccc2S3)oc(N2CCOCC2)c1 | 12% | 19.8% | 36.9% | 16.1% | 35.2% | 16.2% | 5.73% | 25.3%
CCOc1cc2ncc(C#N)c(Nc3ccc(F)c(Cl)c3)c2cc1NC(=O)/C=C/CN(C)C [Pelitinib, EKB-569, WAY-EKB-569] | 16.9% | 13.4% | 43.2% | 40.4% | 56.1% | 16.5% | 10% | 0%
CC1(C)C(=O)NC2=C1C(=O)C(=O)c1ccccc12 | 22.1% | 23.4% | 22.8% | 18.1% | 9.94% | 20.3% | 27.9% | 28.1%
COc1ccc2c(Oc3ccc(NC(=O)c4c(C)n(CC(C)(C)O)n(-c5ccccc5)c4=O)nc3)ccnc2c1 | 50.8% | 41.4% | 64.3% | 58.3% | 6.25% | 3.02% | 0.78% | 0.28%
COc1cc2ncnc(Nc3ccc(Oc4ccccc4)cc3)c2cc1OC | 9.94% | 8.92% | 60.8% | 40% | 11.6% | 12.7% | 4.12% | 15.4%
CC(C)[C@H](CO)Nc1nc(Nc2cccc(Cl)c2)c2ncn(C(C)C)c2n1 [Purvalanol A, NG 60] | 6.06% | 27.2% | 68.3% | 45% | 7.58% | 38% | 0% | 0%
Nc1ncnc2c1ncn2[C@@H]1O[C@H](CSCC[C@H](N)C(=O)O)[C@@H](O)[C@H]1O [S-Adenosylhomocysteine, SAH, AdoHcy] | 14.9% | 15.8% | 14% | 13.5% | 80.4% | 21.9% | 56.6% | 48.1%
Cc1ccc(-c2csc3ncnc(SCCC(=O)O)c23)cc1 | 3.7% | 1.07% | 10.5% | 9.03% | 64.5% | 50.8% | 47.7% | 25%
Cc1ccc2nc(NCCN)c3ncc(C)n3c2c1 | 21.4% | 12.3% | 15% | 14.6% | 63.3% | 41% | 16.9% | 8.46%
CCN(CC)Cc1cc(Cl)c2cccnc2c1O | 26.5% | 31.2% | 21.1% | 28.4% | 9.31% | 1.83% | 21.4% | 9.57%
COc1cc2c(NC3CCN(C)CC3)nc(N3CCCN(C)CC3)nc2cc1OCCCN(C)C | 19.8% | 24.4% | 17.6% | 21.3% | 16.9% | 5.43% | 30.8% | 17.3%
CCNC(=O)c1noc(-c2cc(C(C)C)c(O)cc2O)c1-c1ccc(CN2CCOCC2)cc1 | 28.6% | 37.6% | 73.5% | 46.1% | 0.71% | 0.56% | 0% | 0%
CCCOc1ccc(/C=C2/SC(=O)NC2=O)cc1 [PIM1/2 Kinase Inhibitor VI] | 17.5% | 12.9% | 19.3% | 18.4% | 44.4% | 27% | 10.2% | 7.98%
C=CC(=O)Nc1cccc(Oc2nc(Nc3ccc(N4CCN(C)CC4)cc3OC)ncc2Cl)c1 | 54.6% | 54.5% | 44.9% | 41.3% | 13.7% | 52.6% | 22.6% | 15.4%
CC(C)(F)C[C@H](N[C@@H](c1ccc(-c2ccc(S(C)(=O)=O)cc2)cc1)C(F)(F)F)C(=O)NC1(C#N)CC1 [Odanacatib, MK-0822] | 12.3% | 12.8% | 5.79% | 9.88% | 55.6% | 34.3% | 72.3% | 63%

Reference: the supplement of paper PMC10502849
